In ChEMBL document CHEMBL4888484, “Replenishing the malaria drug discovery pipeline: Screening and hit evaluation of the MMV Hit Generation Library 1 (HGL1) against asexual blood stage Plasmodium falciparum ,using a nano luciferase reporter read-out” (2022):
Where “and” joins values, the source holds several entries; their conditions need not be identical. Equal values may be shown once. About 540 (0.36%) of roughly 150,000 compounds showed an effect of 50% or more. The list shows a part of the results.

Test system: Plasmodium falciparum
Test: Primary screen in NF54 nanoGlo assay, in single point, at 2uM, 72h; a lower Z score goes with more inhibition
Type: functional, Erythrocyte
Conditions: timepoint 72 hour

Compound | % Inhibition | Z score | % Inhibition (2 µM)
CC(C)c1ccc(OC(=O)CCN2C(=O)c3ccccc3C2=O)cc1 | -3% | 0.41 | 
O=C(NCc1ccc(-n2cncn2)nc1)c1ccc(=O)[nH]n1 | -9% | 1.51 | 
Cn1ncnc1CN1CCC[C@H](c2ccc(F)cc2)CC1 | 2% | -0.3 | 
c1cnc2cnn(CC[C@H]3CCCO3)c2c1 | -19% | 2.43 | 
COC(C)(C)CCNc1cc(C(C)C)ncn1 | 2% | -0.27 | 
CCOc1ccccc1NC(=O)N1C[C@H](N(C)C)C[C@H]1CO | -7% | 0.69 | 
Cc1nn(-c2ccccc2)c(C)c1C(=O)Nc1cccc(N2CCCC2=O)c1 | 42% | -5.47 | 
Cc1cc(C)n(C(=O)c2c(-c3ccccc3)c(-c3ccccc3)n[nH]c2=O)n1 | 3% | -0.6 | 
C[C@@H](c1nnc(-c2cccs2)o1)N1CCC2(CC1)OCCO2 | -9% | 1.4 | 
O=C(CC1C=CCC1)N1CCCC(CN2CCCC2)C1 (stereo unspecified) | -5% | 0.73 | 
Cc1ccccc1OCC(=O)NC(C)(C)C | 5% | -0.81 | 
Cc1c(C(=O)N2C[C@@H](C)CN(C)c3ccccc32)nnn1-c1cnn(C)c1 | -11% | 1.12 | 
Cc1cnc(C)c(Oc2cccc(CN3CCCC3)c2F)n1 | -8% | 1.3 | 
Cc1cc(C(=O)NCc2ccc(N(C)C)cc2)c2c(=O)n(C)c(=O)n(C)c2n1 | -3% | 0.34 | 
C[C@@H](CCN(C)CCn1cc(C(=O)NCc2ccncc2)nn1)c1ccccc1 | -14% | 1.89 | 
COC(CNC(=O)c1ccc(-n2cccn2)nn1)OC | -12% | 2.33 | 
COc1cc(NS(=O)(=O)N2CC3CCC2C3)c(F)cc1C#N (stereo unspecified) | -3% | 0.47 | 
CCC(C)(CC)[C@@](O)(C#CC[N+]1(Cc2ccccc2Cl)CCCCC1)c1ccccc1 | 39% | -4.45 | 
Cc1cc(O)cc(=O)n1CCC(=O)N1CC(c2ccccc2)CC1C (stereo unspecified) | -6% | 0.68 | 

Compound | % Inhibition | Z score | % Inhibition (2 µM)
CCn1nc(Cc2c(Cl)cccc2Cl)nc1CNC1CC1 | -5% | 0.95 | 
CN1C(=O)[C@@H]2CCCCN2c2ccc(C(=O)NC3CCCC3)cc21 | 11% | -1.58 | 
C=CCNC(=NCc1ccc(OC)cc1)NCC1CC1 | -2% | 0.2 | 
CN1CCOC[C@H]2CCN(S(=O)(=O)c3ccc4c(c3)OCCO4)C[C@H]21 | -12% | 2.35 | 
CCc1nnsc1C(=O)Nc1ccc(Cl)cn1 | -8% | 1.54 | 
COC(=O)c1cc(F)c(F)c(N)c1Cl | 1% | -0.12 | 
Cc1c(S(=O)(=O)Nc2cc(C(C)(C)F)on2)cnn1C | 29% | -2.46 | 
Cc1ccc(Nc2[nH]nnc2C(=O)N2CCc3ccccc3C2)cc1C | -10% | 1.29 | 
O=C(Cn1cnc2ccccc21)NCc1ccccc1-c1ccsc1 | 5% | -0.86 | 
Cc1nn(C)c(C)c1C(=O)Nc1ccc2c(c1)OCCCO2 | -3% | 0.51 | 
Cc1nc(N)nc(NCCc2ncc[nH]2)c1Cl | -10% | 0.89 | 
C#Cc1cccc(NC(=O)N[C@@H](C)C(C)(C)CN(C)C)c1 | 8% | -1.32 | 
O=C(c1cc2ccccc2o1)N(c1cccc(F)c1)C1CCOCC1 | -16% | 1.72 | 
O=C(c1cnn2c1CCCC2)N1CCN([C@H]2CCN(Cc3ccccc3)C2)CC1 | 0% | -0.06 | 
CCCC(=O)N1CCC(C(=O)NC(C)(C)C)CC1 | -16% | 2.36 | 
Cc1ncc(CO)c2c1NC(C)(C)OC2 | -8% | 0.7 | 
Cc1cc(O)nc2nnc(-c3ccc(Br)cc3)n12 | -10% | 0.85 | 
COc1ccc(NS(=O)(=O)c2ccc(NC(=O)C(c3ccccc3)c3ccccc3)cc2)cc1 | 7% | -1.15 | 
CCn1nc(CC(C)C)cc1C(=O)N(C)Cc1nc2ccccc2n1C | -23% | 2.3 | 

Compound | % Inhibition | Z score | % Inhibition (2 µM)
COc1cc2c(cc1OC)C(NC(=O)C[C@@H]1NC(=O)N(c3ccccc3)C1=O)CC2 (stereo partly specified) | -3% | 0.45 | 
O=C(Nc1cnc(Oc2ccccc2)nc1)Nc1ccccc1Cl | 5% | -1.01 | 
COc1ccccc1-c1nc2c(OCc3ccccc3)cccn2c1NC(C)(C)C | -15% | 1.44 | 
CS(=O)(=O)c1cccc(C(=O)N2CCNC(=O)C[C@H]2c2ccccc2)c1 | -9% | 1.21 | 
COc1ccccc1OCC(=O)OCc1nc(O[C@@H](C)c2ccccc2)ccc1Cl | 16% | -2.18 | 
O=C(NC[C@H](O)c1ccoc1)c1ccoc1 | -5% | 0.78 | 
c1ccc(-c2nnc(OCc3nc(C4CCCC4)no3)o2)cc1 | 0% | 0.05 | 
CCOc1cc(N2CC(C)C2C)ncn1 (stereo unspecified) | -30% | 3.54 | 
CC(C)S(=O)(=O)N1CCN(C(=O)C[C@@H]2NC(=O)N(c3ccccc3)C2=O)CC1 |  |  | -5% and -1%
Cc1ccc(C)c(-c2cn3c(C(=O)N(C)[C@H]4CCOC4)csc3n2)c1 | -10% | 1.41 | 
C[C@]1(c2cccc(C(=O)O)c2)Nc2ccccc2-c2nnnn21 | 5% | -0.68 | 
COc1ccc(Cc2c(N)nc(Cn3cncn3)nc2N)cc1 | 29% | -3.8 | 
C[C@@H]1NC(=O)N(c2ccccc2NC(=O)c2cccn2C2CC2)C1=O | -6% | 0.63 | 
CC(C)=CC1C(C(=O)N2CCOC(C(N)=O)C2)C1(C)C (stereo unspecified) | -8% | 0.98 | 
COCc1nnc(CNC(=O)N[C@H]2CCCc3ccccc3C2)[nH]1 | -6% | 1.24 | 
CC1CCN(c2nn(CC(=O)Nc3ccc(C(C)C)cc3)c(=O)c3ccccc23)CC1 | -21% | 3.12 | 
CC(C)(O)Cn1cnc(-c2ccccc2)n1 | -7% | 0.93 | 
N#Cc1ccc2c(c1)C(=O)[C@H](C#N)C(=O)N2Cc1ccccc1 | -1% | 0.23 | 
